# Measured values as given in PubChem BioAssay AID602310 (National Center for Advancing Translational Sciences (NCATS), 2012).
# Among all 410,000 compounds or so, about 310 (0.076%) were called active. Inconclusive means that the source gave no clear call. Such entries were picked first, then a sample of the others. The call rests on the fitted dose curve; in most records, active means well fitted curve in the direction sought with a large enough effect; inconclusive means small, poorly fitted or top-dose-only effect; inactive means flat fitted curve, though single readings scatter. Where the call is inconclusive, the potency comes from a doubtful curve fit.
# Target: DNA dC->dU-editing enzyme APOBEC-3G (Homo sapiens) (UniProt Q9HC16)
# Experiment: qHTS for Inhibitors of Vif-A3G Interactions: qHTS; further: nearly all actives have a fitted effect of over 60% in size
# Conditions: HeLa A3G-eYFP + Vif (tagged APOBEC3G with the HIV-1 protein that degrades it), YFP fluorescence, overnight; series mostly up to 46.1 µM
# Procedure, shortened: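 HeLa cells stably expressing Vif and C-terminally eYFP-tagged A3G, seeded overnight at 37 deg C, then exposed to compound by pintool overnight at 37 deg C. Rise in yellow fluorescence (Ex 488/Em 500-530, Acumen) marks blocked Vif-driven A3G degradation.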
# Potency means the concentration at half of the fitted maximal effect; tags describe the fitted curve by direction and shape.
# Sequence of UniProt Q9HC16 (Q9HC16 whole entry, looked up): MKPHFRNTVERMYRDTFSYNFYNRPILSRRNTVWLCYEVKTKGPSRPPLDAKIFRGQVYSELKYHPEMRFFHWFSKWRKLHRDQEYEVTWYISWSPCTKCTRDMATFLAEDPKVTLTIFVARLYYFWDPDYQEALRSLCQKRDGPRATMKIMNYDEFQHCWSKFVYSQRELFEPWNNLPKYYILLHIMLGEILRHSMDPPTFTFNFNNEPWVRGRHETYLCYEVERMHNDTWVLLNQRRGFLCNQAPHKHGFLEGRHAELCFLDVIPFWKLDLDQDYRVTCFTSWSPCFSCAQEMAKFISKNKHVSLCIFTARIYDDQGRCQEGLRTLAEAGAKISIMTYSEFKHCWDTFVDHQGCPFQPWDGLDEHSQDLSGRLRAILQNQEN
row,Structure (SMILES),Potency
1,COc1cc(C)c(C2NC(=O)c3ccccc3N2)cc1C (configuration not stated),"inconclusive: 2.82 µM [inhibitor, full curve]"
2,COc1ccc(-n2c(C)cc(-c3cn4cccc(C)c4n3)c2C)cc1,inactive
3,Cc1cccc(C2CC(=O)Nc3cc4c(cc32)OCO4)c1 (configuration not stated),"inconclusive: 28.2 µM [inhibitor, single point]"
4,O=[N+]([O-])c1ccc(O)c(/C=N/NC(=S)Nc2ccc(Cl)cc2Cl)c1,inactive
5,CCN1CCN(c2ccc(S(=O)(=O)N3CCCCC3)cc2NC(=O)/C=C/c2ccc([N+](=O)[O-])cc2)CC1,"inconclusive: 20 µM [inhibitor, partial curve, poor fit]"
6,Cc1nn(-c2ccccc2)c(C)c1-c1cc(C(=O)N/N=C/c2ccc(O)cc2)[nH]n1,"inconclusive: 35.5 µM [inhibitor, single point]"
7,Cc1cc(-c2ccc(C(C)C)c(S(=O)(=O)N3CCN(c4ccccn4)CC3)c2)on1,inactive
8,O=C(Nc1ccc2nc(-c3ccc(Br)o3)[nH]c2c1)c1cccs1,"inconclusive: 12.6 µM [inhibitor, single point]"
9,Oc1ccc(C=NNC(=S)Nc2ccc(F)cc2)c(O)c1,"inconclusive: 17.8 µM [inhibitor, single point]"
10,COc1cc2c(cc1OC)CN(C(=O)CCOc1ccccc1C)CC2,"inconclusive: 25.1 µM [inhibitor, single point]"
11,O=c1c2ccccc2c(C=Nc2cccc(O)c2)c(O)n1-c1ccc2c(c1)OCO2,"inconclusive: 11.2 µM [inhibitor, partial curve, poor fit]"
12,Oc1cccc(C=Nc2cccc3ccccc23)c1O,"inconclusive: 35.5 µM [inhibitor, single point]"
13,CCN1CCN(C(=O)C2CCN(Cc3cc(Cl)ccc3O)CC2)CC1,inactive
14,CCOc1ccc(/C=C/C2=Cc3c(sc(NC(=O)CSc4n[nH]c(N)n4)c3C#N)C(C)(C)C2)cc1,"inconclusive: 10 µM [inhibitor, partial curve, poor fit]"
15,Cc1csc(SCC(=O)Nc2cc([N+](=O)[O-])ccc2F)n1,"inconclusive: 35.5 µM [inhibitor, single point]"
16,c1ccc2c(-c3nc4ccccc4[nH]3)cccc2c1,active: 6.31 µM
17,Cc1ccc(Cc2c(-c3ccco3)nc3c(C)cc(Br)cn23)cc1,"inconclusive: 25.1 µM [inhibitor, single point]"
18,COc1ccc2sc3c(=O)[nH]c4ccccc4c3c2c1,inactive
19,COc1ccc(-c2cn3c(n2)sc2cc(C(=O)NCCc4ccc(OC)cc4OC)ccc23)cc1,inactive
20,COc1ccc(NC(=O)C#Cc2ccccc2)cc1OC,"inconclusive: 22.4 µM [inhibitor, single point]"
21,COC(=O)/C(=C\Nc1ccc(Cl)cc1Cl)NC(=O)c1ccc(Cl)cc1Cl,"inconclusive: 10 µM [inhibitor, partial curve, poor fit]"
22,C=CCNC(=O)/C(C#N)=C/c1ccc(OS(=O)(=O)c2ccc(C)cc2)c(OC)c1,"inconclusive: 22.4 µM [inhibitor, single point]"
23,C=CSc1sc(Cl)c(N2CCOCC2)c1[N+](=O)[O-],"inconclusive: 35.5 µM [inhibitor, single point]"

row,Structure (SMILES),Potency
1,CCCc1nc2ccc(C(=O)OC)cn2c1Cc1ccccc1C(F)(F)F,"inconclusive: 20 µM [inhibitor, single point]"
2,Cc1ccc(N=C2NC(=O)/C(=C/c3cccn3C)S2)cc1C,"inconclusive: 6.31 µM [inhibitor, partial curve, poor fit]"
3,COc1cc(C(=O)N/N=C/c2ccc(OC(=O)c3cccc(C)c3)cc2)ccc1O,"inconclusive: 28.2 µM [inhibitor, single point]"
4,Cn1c(CSc2nc3ccc(Br)cc3[nH]2)nc2ccccc21,"inconclusive: 28.2 µM [inhibitor, single point]"
5,CC(=O)N1CCCc2cc(S(=O)(=O)Nc3ccccc3C)ccc21,inactive
6,C=CCOC(=O)C1=C(C)NC(C)=C(C(=O)OCC=C)C1c1cn(-c2ccccc2)nc1-c1ccco1,active: 8.91 µM
7,C=C(CN(C)C)C(=O)c1ccc(C)cc1C,"inconclusive: 12.6 µM [inhibitor, partial curve, poor fit]"
8,Cc1[nH]c2ccccc2c1/C=C/c1ccnc2ccccc12,"inconclusive: 2.82 µM [inhibitor, full curve]"
9,O=C(NC1CCCC1)C(c1ccncc1)N(Cc1ccco1)C(=O)c1ccc(-c2ccccc2)[nH]1 (configuration not stated),"inconclusive: 20 µM [inhibitor, single point]"
10,Cn1c(C(=O)NCc2cccnc2)cc2sccc21,inactive
11,O=C(/C=C/c1ccccc1)Nc1ccc(Br)cn1,"inconclusive: 1.41 µM [inhibitor, full curve, poor fit]"
12,CCCS(=O)(=O)N1CCC(C(=O)N2CCC(Cc3ccccc3)CC2)CC1,inactive
13,COC(=O)N1C(=O)[C@](Cc2ccccc2)(c2ccccc2)N1C(=O)OC,"inconclusive: 17.8 µM [inhibitor, single point]"
14,CC(CC(=O)Nc1ccncc1)c1ccccc1 (configuration not stated),inactive
15,Nc1nc(-c2ccccc2)cn1/N=C/c1ccccc1,"inconclusive: 12.6 µM [inhibitor, partial curve, poor fit]"
16,COC(=O)N1c2ccccc2C=Cc2ccccc21,"inconclusive: 15.8 µM [inhibitor, single point]"
17,COc1cc(/C=N/NC(=O)c2cc(-c3c(C)nn(-c4ccccc4)c3C)n[nH]2)ccc1O,"inconclusive: 15.8 µM [inhibitor, partial curve, poor fit]"
18,OC(COC(c1ccc(Cl)cc1)c1ccc(Cl)cc1)CN1CCc2ccccc2C1 (configuration not stated),"inconclusive: 20 µM [inhibitor, single point]"
19,O=C(COC(=O)CCCC1=NS(=O)(=O)c2ccccc2N1)Nc1ccccc1,inactive
20,OC(CNCc1ccc(-c2ccccc2)cc1)c1ccccc1 (configuration not stated),"inconclusive: 35.5 µM [inhibitor, single point]"
21,CCOCN(C(=O)Cn1cnc2cc(C)c(C)cc21)c1c(C)cccc1CC,"inconclusive: 3.98 µM [inhibitor, partial curve, poor fit]"
22,COc1ccc(N/C=C/C(=O)c2cc(OC)c(OC)c(OC)c2)cc1,"inconclusive: 1.12 µM [inhibitor, full curve, poor fit]"
23,CNCC(O)CN(c1ccccc1)c1ccccc1 (configuration not stated),inactive

row,Structure (SMILES),Potency
1,COCCNc1nc(NCc2cc(-c3ccc(OC)cc3)no2)c2sccc2n1,"inconclusive: 7.08 µM [inhibitor, partial curve]"
2,CCOC(=O)c1ccc(-n2c(CN3CCOCC3)nc3ccc([N+](=O)[O-])cc3c2=O)cc1,"inconclusive: 35.5 µM [inhibitor, single point]"
3,COc1ccc2cc(-c3[nH]ncc3CN3CCCC3c3nonc3C)ccc2c1 (configuration not stated),"inconclusive: 22.4 µM [inhibitor, single point]"
4,N=c1c(C(=O)NC2CCCCC2)cc2c(=O)n3ccccc3nc2n1CCc1ccccc1,inactive
5,O=C(NCc1ccc2c(c1)OCO2)c1c(F)c(F)c(F)c(F)c1F,inactive
6,O=C1C2C(c3ccccc3)CC=CC2C(c2cccc([N+](=O)[O-])c2)N1Cc1ccccc1 (configuration not stated),inactive
7,O=C(c1ccccc1)c1ccc(-c2ccc(O)cc2)cc1,"inconclusive: 0.631 µM [inhibitor, full curve, poor fit]"
8,O=[N+]([O-])c1ccc(/C=[N+](\[O-])[C@@H]2CCCC[C@@H]2/[N+]([O-])=C/c2ccc([N+](=O)[O-])o2)o1,"inconclusive: 5.62 µM [inhibitor, single point]"
9,Cc1ccc(Nc2nc(N)nc(-c3oc4ccccc4c3C)n2)cc1,"inconclusive: 6.31 µM [inhibitor, partial curve, poor fit]"
10,Cc1oc(=O)c(NC(=O)c2ccc(Cl)cc2)cc1C(=O)c1ccccc1,"inconclusive: 12.6 µM [inhibitor, single point]"
11,C/C(=C\C(=O)OCC(=O)NCc1ccccc1)C(=O)OCC(=O)NCc1ccccc1,inactive
12,COc1ccc(NC(=O)N2CCC(CN3CCCC3)CC2)c(OC)c1,inactive
13,Cc1ccc(CCNC(=O)c2sc3nc4n(c(=O)c3c2C)CCC4)cc1,inactive
14,COc1cc(C2c3cc4c(cc3OC(NNC(N)=O)C2C)OCO4)cc(OC)c1OC (configuration not stated),"inconclusive: 0.355 µM [inhibitor, full curve, poor fit]"
15,O=c1c2ccccc2nc(/C=C/c2ccc([N+](=O)[O-])o2)n1CCCO,"inconclusive: 7.08 µM [inhibitor, partial curve, poor fit]"
16,COc1ccc(C(=O)c2ccc(Cl)c([N+](=O)[O-])c2)cc1,"inconclusive: 2.51 µM [inhibitor, full curve, poor fit]"
17,O=C(O)CSc1cc(NS(=O)(=O)c2cccc([N+](=O)[O-])c2)c2ccccc2c1O,"inconclusive: 17.8 µM [inhibitor, partial curve, poor fit]"
18,COc1ccc(-c2nc(NC(=O)C3CC(=O)N(c4ccc5c(c4)OCCO5)C3)sc2C)cc1 (configuration not stated),"inconclusive: 5.62 µM [inhibitor, single point]"
19,Cc1noc(C)c1-c1ccc2ncnc(NC(C)c3ccco3)c2c1 (configuration not stated),"inconclusive: 35.5 µM [inhibitor, single point]"
20,CN(C)c1ccc(/C=C/c2ccnc3ccccc23)c(F)c1,"inconclusive: 8.91 µM [inhibitor, partial curve]"
21,O=C(Nc1nc2ccccc2s1)c1cc2c(s1)-c1ccccc1OC2,inactive
